Among all 150,000 compounds or so, about 540 (0.36%) showed an effect of 50% or more. The list shows a part of the results.

The test has as its system Plasmodium falciparum. The test can be described thus: Primary screen in NF54 nanoGlo assay, in single point, at 2uM, 72h; a lower Z score goes with more inhibition. It is filed as functional, Erythrocyte. The note with it: timepoint 72 hour.
`CS(=O)(=O)N1CCC[C@@H]1CNc1nc2c(cc1C#N)CCC2`: the “% Inhibition” value turned out to be 9% and the Z score is on record as -1.64.

For the compound `CC(C)(Cc1cnn[nH]1)C(=O)N1CCC2C(CCCN2C2CC2)C1` (centres undefined), the “% Inhibition” value was -5% and the Z score is 1.03.

`Cn1c(-c2cccc(C(=O)Nc3ccc4c(c3)OCCO4)c2)nc2cccnc21`: the “% Inhibition” value is -17% and the Z score was 2.24.

For `COc1ccc2c(c1)CCCN(C(=O)c1c[nH]c(=O)cc1C)C2`, the “% Inhibition” value was determined as 15% and the Z score is -2.

Regarding `CC1CC1C(=O)Nc1n[nH]c2nc(C(F)(F)F)ccc12` (centres undefined), the “% Inhibition” value is recorded as -4% and the Z score is 0.9.

Regarding `COc1cccc([C@@H]2NC(=O)NC3=Nc4ccccc4NC(c4ccccc4)=C32)c1OC`, the “% Inhibition” value came to 14% and the Z score is -1.94.

In the case of `O=C(Cn1ccc([C@H]2CCCNC2)n1)NCc1noc(-c2ccccc2)n1`, the “% Inhibition” value is listed as 11% and the Z score is on record as -1.41.

Consider `c1csc(-c2noc(CN3CCC[C@@H]3Cn3cncn3)n2)c1`, for which the “% Inhibition” value is listed as -9% and the Z score is 1.28.

`O=C(NCCn1cccnc1=O)c1cncc(Br)c1`: the “% Inhibition” value came to 28% and the Z score is given as -3.64.

Take `CCc1cc(N(C)CC2(C)COC2)nc(N(C)C)n1`: the “% Inhibition” value was found to be 11% and the Z score is recorded as -1.92.

For the compound `Cc1ccc(N(C)S(=O)(=O)c2ccc(CC(=O)N3CCCCC3)s2)cc1`, the “% Inhibition” value is -4% and the Z score is 0.86.

In the case of `CCC(C)C(Nc1ncc(C(F)(F)F)cc1Cl)C(N)=O` (centres undefined), the “% Inhibition” value is reported as -1% and the Z score is 0.13.

Turning to `CCn1nccc1CNc1cc(Cl)cc2c1OCC(=O)N2`, the “% Inhibition” value is given as 0% and the Z score is reported as -0.01.

Take `CCn1cc2c(n1)c(=O)n(Cc1ccccc1)c(=O)n2CC(=O)Nc1ccccc1C(F)(F)F`: the “% Inhibition” value amounted to 0% and the Z score came to 0.03.

As for `c1c(C2CC2)noc1CNCc1noc2c1CCCC2`, the “% Inhibition” value is listed as -2% and the Z score turned out to be 0.23.

Regarding `CNC(=O)Cc1noc(C=Cc2ccco2)n1`, the “% Inhibition” value is -1% and the Z score is listed as 0.12.

Consider `Cc1nc(C(=O)N2C[C@H]3CC[C@@H](C2)N(Cc2c(C)noc2C)C3=O)cs1`, for which the “% Inhibition” value stood at 3% and the Z score is -0.47.

For the compound `CN(C)C(=O)c1cccc(Cn2cnc3cnccc3c2=O)c1`, the “% Inhibition” value is recorded as -7% and the Z score is listed as 0.67.

`COCCN1C(=O)[C@@H]2C[C@@H](CN2C)Oc2ccccc21`: the “% Inhibition” value is -5% and the Z score stood at 0.54.

As for `COc1ccc(C2CN(C(=O)c3ccc(C)cc3)CC2C(=O)NC2CC2)c(OC)c1` (centres undefined), the “% Inhibition” value is given as -11% and the Z score was determined as 1.45.

Regarding `Cc1ccc(C)c(S(=O)(=O)Nc2nc(N3CCOCC3)ns2)c1`, the “% Inhibition” value is reported as -8% and the Z score is on record as 0.76.

On to `Cc1cc(CN(C)c2cc([C@H]3CCOC3)nc(NCCO)n2)no1`, for which the “% Inhibition” value is listed as -6% and the Z score worked out at 0.82.

With `CCc1sc(C(=O)N2CCCc3cc(S(=O)(=O)N4CCCC4)ccc32)cc1C`, the “% Inhibition” value is on record as -7% and the Z score is 1.42.

Regarding `CCOc1cc(C(=O)N2CC[C@H](c3cccnc3OC)C2)ccn1`, the “% Inhibition” value is recorded as -6% and the Z score is on record as 0.76.

On to `Cc1nnc(CN(C)Cc2cnc3ccccc3c2)o1`, for which the “% Inhibition” value was 6% and the Z score was -1.2.

On to `c1ccc(-n2nnnc2C2(NC3CCCCC3)CCCC2)cc1`, for which the “% Inhibition” value is on record as -4% and the Z score was 0.63.

As to `CC(C)Oc1ccccc1-c1ncccc1C(=O)N1CCCC1`, the “% Inhibition” value was 9% and the Z score is -1.83.

For the compound `CN(C)c1ccc(CNC(=O)c2cc(F)c(Br)cc2Cl)cn1`, the “% Inhibition” value is reported as 6% and the Z score was -0.85.

As for `O=C1CC(C(=O)N2CCc3ccc(Br)cc32)CC(=O)N1`, the “% Inhibition” value turned out to be 10% and the Z score is on record as -1.37.

Turning to `O=C(c1ccc(N2CCCC2)cc1)N1CCC[C@H](Nc2ccc(F)cc2)C1`, the “% Inhibition” value is on record as -3% and the Z score stood at 0.28.

In the case of `O=C(c1c[nH]nn1)N(CC1CC1)C1CCC1`, the “% Inhibition” value worked out at 4% and the Z score is on record as -0.68.

Consider `C[C@@H](C(=O)Nc1cccc2oc(C(F)(F)F)nc12)c1cccnc1`, for which the “% Inhibition” value is -1% and the Z score is 0.09.

Take `CC1CN(S(=O)(=O)c2ccc3c(c2)OCCO3)C(C)CO1` (centres undefined): the “% Inhibition” value is -2% and the Z score is listed as 0.27.

`COc1cccc2cc(-c3nnc(NC(=O)CCS(=O)(=O)c4ccc(Cl)cc4)o3)oc12`: the “% Inhibition” value is -13% and the Z score is given as 1.49.

With `COCc1cnc(NC(=O)[C@@H]2CCN(C)[C@@H]2c2ccccc2)s1`, the “% Inhibition” value was -10% and the Z score stood at 1.01.

Regarding `OC(CNC1CCCNc2ccccc21)c1ccc(Cl)s1` (centres undefined), the “% Inhibition” value came out at 57% and the Z score is on record as -4.74.

With `CCc1ccccc1NC(=O)CN1CCN(CN2C(=O)NC3(CCCCC3)C2=O)CC1`, the “% Inhibition” value is reported as -36% and the Z score amounted to 4.25.

With `CC[C@](C)(NC(=O)c1ccccc1)c1nc(-c2ccc(S(N)(=O)=O)cc2)cs1`, the “% Inhibition” value was -10% and the Z score was 1.68.

In the case of `Cn1c(=O)c2nc(N3CCOCC3)[nH]c2n(-c2ccccc2)c1=O`, the “% Inhibition” value is 36% and the Z score was -4.08.

Consider `O=C(C(=O)N1CCCC[C@H]1C(=O)O)c1ccc(Br)cc1`, for which the “% Inhibition” value is given as -8% and the Z score is reported as 0.78.

With `Cc1cc(C(=O)NCc2nc3ccccc3s2)c(C)o1`, the “% Inhibition” value was determined as 35% and the Z score is listed as -0.66.

On to `CCc1ccccc1C(=O)NCc1ccccc1CN1CC[C@H](O)C1`, for which the “% Inhibition” value is listed as -9% and the Z score was 0.92.

Values taken from ChEMBL document CHEMBL4888484, “Replenishing the malaria drug discovery pipeline: Screening and hit evaluation of the MMV Hit Generation Library 1 (HGL1) against asexual blood stage Plasmodium falciparum ,using a nano luciferase reporter read-out” (2022).
